Numbering of substitutions follows the chain as printed; changes in the protein carry UniProt numbers. The list shows a part of the results.
T1: RBFOX1 RRM RbFoxmut (Fox-RRM*) (Homo sapiens, UniProt Q9NWB1 109-208, R118D;E147R;N151S;E152T)
T1 sequence: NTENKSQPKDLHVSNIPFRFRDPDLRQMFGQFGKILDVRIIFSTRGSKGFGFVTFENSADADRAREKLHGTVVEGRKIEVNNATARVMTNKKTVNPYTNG

B1: AUAGACA (DNA:RNA)
RNA: GGGAGACCGGAAUUCAGAUUGUCCAUAGACAUUAAAUCCCGUCGUAGCCACCA
DNA 1: CAATCTGAATTCCGGTCTCCC
DNA 2: TGGTGGCTACGACGGGATT
B2: ACGGGAG (DNA:RNA)
RNA: B1 RNA with U26C, A27G, A29G, C30A, A31G
DNA 1: CAATCTGAATTCCGGTCTCCC
DNA 2: TGGTGGCTACGACGGGATT
B3: GCAAUAC (DNA:RNA)
RNA: B1 RNA with A25G, U26C, G28A, A29U, C30A, A31C
DNA 1: CAATCTGAATTCCGGTCTCCC
DNA 2: TGGTGGCTACGACGGGATT
B4: ACCCGUA (DNA:RNA)
RNA: B1 RNA with U26C, A27C, G28C, A29G, C30U
DNA 1: CAATCTGAATTCCGGTCTCCC
DNA 2: TGGTGGCTACGACGGGATT
B5: GCUAGCU (DNA:RNA)
RNA: B1 RNA with A25G, U26C, A27U, G28A, A29G, A31U
DNA 1: CAATCTGAATTCCGGTCTCCC
DNA 2: TGGTGGCTACGACGGGATT
B6: UUGUGCC (DNA:RNA)
RNA: B1 RNA with A25U, A27G, G28U, A29G, A31C
DNA 1: CAATCTGAATTCCGGTCTCCC
DNA 2: TGGTGGCTACGACGGGATT
B7: GUUUAGA (DNA:RNA)
RNA: B1 RNA with A25G, A27U, G28U, C30G
DNA 1: CAATCTGAATTCCGGTCTCCC
DNA 2: TGGTGGCTACGACGGGATT
B8: CCAUCGU (DNA:RNA)
RNA: B1 RNA with A25C, U26C, G28U, A29C, C30G, A31U
DNA 1: CAATCTGAATTCCGGTCTCCC
DNA 2: TGGTGGCTACGACGGGATT
B9: UUACGCC (DNA:RNA)
RNA: B1 RNA with A25U, G28C, A29G, A31C
DNA 1: CAATCTGAATTCCGGTCTCCC
DNA 2: TGGTGGCTACGACGGGATT
B10: UGAAUAA (DNA:RNA)
RNA: B1 RNA with A25U, U26G, G28A, A29U, C30A
DNA 1: CAATCTGAATTCCGGTCTCCC
DNA 2: TGGTGGCTACGACGGGATT
B11: ACCAUAC (DNA:RNA)
RNA: B1 RNA with U26C, A27C, G28A, A29U, C30A, A31C
DNA 1: CAATCTGAATTCCGGTCTCCC
DNA 2: TGGTGGCTACGACGGGATT
B12: CCAUACG (DNA:RNA)
RNA: B1 RNA with A25C, U26C, G28U, A31G
DNA 1: CAATCTGAATTCCGGTCTCCC
DNA 2: TGGTGGCTACGACGGGATT
B13: GAACAAA (DNA:RNA)
RNA: B1 RNA with A25G, U26A, G28C, C30A
DNA 1: CAATCTGAATTCCGGTCTCCC
DNA 2: TGGTGGCTACGACGGGATT
B14: AGUACGC (DNA:RNA)
RNA: B1 RNA with U26G, A27U, G28A, A29C, C30G, A31C
DNA 1: CAATCTGAATTCCGGTCTCCC
DNA 2: TGGTGGCTACGACGGGATT
B15: CUGGUUC (DNA:RNA)
RNA: B1 RNA with A25C, A27G, A29U, C30U, A31C
DNA 1: CAATCTGAATTCCGGTCTCCC
DNA 2: TGGTGGCTACGACGGGATT
B16: GGGUUGG (DNA:RNA)
RNA: GGGAGACCGGAAUUCAGAUUGUCCGGGUUGGUUAAAUCCCGUCGUAGCCACCA
DNA 1: CAATCTGAATTCCGGTCTCCC
DNA 2: TGGTGGCTACGACGGGATT
B17: GUCAUUC (DNA:RNA)
RNA: B16 RNA with G26U, G27C, U28A, G30U, G31C
DNA 1: CAATCTGAATTCCGGTCTCCC
DNA 2: TGGTGGCTACGACGGGATT
B18: AGGAGGC (DNA:RNA)
RNA: B16 RNA with G25A, U28A, U29G, G31C
DNA 1: CAATCTGAATTCCGGTCTCCC
DNA 2: TGGTGGCTACGACGGGATT
B19: UCUCGAC (DNA:RNA)
RNA: GGGAGACCGGAAUUCAGAUUGUCCUCUCGACUUAAAUCCCGUCGUAGCCACCA
DNA 1: CAATCTGAATTCCGGTCTCCC
DNA 2: TGGTGGCTACGACGGGATT
B20: GUCCGAC (DNA:RNA)
RNA: B19 RNA with U25G, C26U, U27C
DNA 1: CAATCTGAATTCCGGTCTCCC
DNA 2: TGGTGGCTACGACGGGATT

These binders were tested against T1, RBFOX1 RRM RbFoxmut (Fox-RRM*) (assay: EMSA; HiTS-Eq, 1 nM pool, 10 min; buffer printed only for the single-RNA assays: 10 mM Tris pH 7.5, 150 mM NaCl, 3.4 mM EDTA, 0.001% NP-40, 30 C). Conditions: tags: His6 N-terminal (pET28a); label: 5' 32P.
Method in brief: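 Purified RbFox RRM (wild type or mutant) was equilibrated for 10 min in 50 µL with 1 nM of a 5′-radiolabelled pool of RNA with 7 randomized nucleotides, its flanks annealed to DNA oligonucleotides, across increasing protein concentrations. Free RNA was separated by 8% native PAGE, excised, reverse-transcribed, PCR-barcoded and sequenced on an Illumina HiSeq 2500. Relative association constants came from read-count changes of each variant against the control reaction, normalised to the cognate motif.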

Binder | binding signal
B1 | 0.0765 KA relative to UGCAUGU
B2 | 0.119 KA relative to UGCAUGU
B3 | 0.0774 KA relative to UGCAUGU
B4 | 0.131 KA relative to UGCAUGU
B5 | 0.0867 KA relative to UGCAUGU
B6 | 0.46 KA relative to UGCAUGU
B7 | 0.119 KA relative to UGCAUGU
B8 | 0.114 KA relative to UGCAUGU
B9 | 0.12 KA relative to UGCAUGU
B10 | 0.104 KA relative to UGCAUGU
B11 | 0.0923 KA relative to UGCAUGU
B12 | 0.102 KA relative to UGCAUGU
B13 | 0.0875 KA relative to UGCAUGU
B14 | 0.0766 KA relative to UGCAUGU
B15 | 0.2 KA relative to UGCAUGU
B16 | 0.336 KA relative to UGCAUGU
B17 | 0.0653 KA relative to UGCAUGU
B18 | 0.118 KA relative to UGCAUGU
B19 | 0.0649 KA relative to UGCAUGU
B20 | 0.0921 KA relative to UGCAUGU

— publication PMC9911399, “Two distinct binding modes provide the RNA-binding protein RbFox with extraordinary sequence specificity”
